# According to the supplement of paper PMC5919970:
# Structures can show the parent of a compound that is named as a salt. The full ranking holds about 2,000 compounds; the median of “fractional viability relative to vehicle” is about 0.92, and the lowest 2% start at about 0.11. The list shows a part of the results.
# Test system: TYKNU
# Experiment: fractional viability relative to vehicle; TYKNU is a high-grade serous ovarian cancer line; higher = less growth inhibition
# Conditions: 72 h, genotype: OPA1 knockout (sgOPA1 #2)
# Outline: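 TYKNU control cells or lentiCRISPRv2 knockout derivatives were seeded at 500 cells per well into drug-stamped 384-well plates holding a ~2100-compound library at 2 or 10 μM, in duplicate. Cells were grown at 37 °C in 5% CO2 in RPMI 1640 with 10% FBS, and drug treatment lasted 72 h. Viability was read by Cell Titer Glo luminescence. Duplicate treatment wells were averaged and normalised to duplicate control wells from the same plate position.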
Compound,fractional viability (2uM),fractional viability (10uM)
Cn1ncc(Cl)c1-c1cc(C(=O)N[C@H](CN)Cc2cccc(F)c2)sc1Cl,0.794,0.561
NC12CC3CC(CC(C3)C1)C2 [Amantadine HCl],0.825,0.922
CC(C)(C)C[C@@H]1N[C@@H](C(=O)N[C@H]2CC[C@H](O)CC2)[C@H](c2cccc(Cl)c2F)[C@]12C(=O)Nc1cc(Cl)ccc12,0.477,0.451
O=c1c2ccccc2oc2ccccc12 [Xanthone],1.03,0.929
CO[C@H]1O[C@@H]2O[C@@]3(C)CC[C@H]4[C@H](C)CC[C@@H]([C@H]1C)[C@@]24OO3 [Artemether],0.937,0.971
CC1CCc2c(N3CCC(O)CC3)c(F)cc3c(=O)c(C(=O)O)cn1c23 (stereo unspecified) [Nadifloxacin],1.02,0.982
COc1cc2ncc(-c3ccccc3)nc2cc1OC [Tyrphostin AG 1296],1.35,1.32
CCC[C@H](Nc1nc(-c2ccc(NC(=O)NCC)c(OC)c2)ncc1C)c1cccnc1 [CYT997 (Lexibulin)],0.378,0.361
O=C(O)CCC(=O)Nc1ccc(Br)cn1 [Bikinin],0.818,0.759
COc1ccc(C(=O)Nc2sc3c(c2C(N)=O)CCCC3)cc1OC,0.717,0.731
O=NO [Sodium Nitrite],0.957,0.918
COc1cc(Nc2ncc(F)c(Nc3ccc4c(n3)NC(=O)C(C)(C)O4)n2)cc(OC)c1OC [R406 (free base)],0.939,1.08
COc1cc(Nc2ncc(F)c(Nc3ccc4c(n3)NC(=O)C(C)(C)O4)n2)cc(OC)c1OC,0.879,0.78
CC(C)(Oc1ccc(Cl)cc1)C(=O)O [Clofibric Acid],0.956,0.977
CC(=O)[C@@]1(O)CC[C@H]2[C@@H]3CCC4=CC(=O)CCC4=C3[C@@H](c3ccc(N(C)C)cc3)C[C@@]21C [Ulipristal],0.841,1.07
Cc1ccc(NC(=O)c2ccc(CN3CC[C@H](N(C)C)C3)c(C(F)(F)F)c2)cc1Nc1nccc(-c2cncnc2)n1 [Bafetinib (INNO-406)],1.09,0.174
CS(=O)(=O)c1cccc(CNc2nc(Nc3ccc4c(c3)CCC(=O)N4)ncc2C(F)(F)F)c1,1.07,0.829
CC1(C)CCC(CN2CCN(c3ccc(C(=O)NS(=O)(=O)c4ccc(NCC5CCOCC5)c([N+](=O)[O-])c4)c(Oc4cnc5[nH]ccc5c4)c3)CC2)=C(c2ccc(Cl)cc2)C1,1,0.73
CCCCCCCCCCC[C@@H](C[C@@H]1OC(=O)[C@H]1CCCCCC)OC(=O)[C@H](CC(C)C)NC=O [Orlistat],1.03,0.935
Nc1nc(N)c2nc(-c3cccc(O)c3)cnc2n1,1.05,0.588
CN1CCC(=C2c3ccccc3CC(=O)c3sccc32)CC1 [Ketotifen Fumarate],1.03,1.06
COc1ccccc1N1CCN(CC(O)COc2cccc3ccccc23)CC1 (stereo unspecified) [Naftopidil],0.964,0.76

Compound,fractional viability (2uM),fractional viability (10uM)
COc1ccccc1N1CCN(CC(O)COc2cccc3ccccc23)CC1 (stereo unspecified) [Naftopidil DiHCl],1.09,0.849
O=C(O)CC[C@H]1CC[C@@](c2cc(F)ccc2F)(S(=O)(=O)c2ccc(Cl)cc2)CC1,1.07,0.905
"C/C=C1\NC(=O)[C@H]2CSSCC/C=C/[C@H](CC(=O)N[C@H](C(C)C)C(=O)N2)OC(=O)[C@H](C(C)C)NC1=O [Romidepsin (FK228, Depsipeptide)]",0.0685,0.0492
COc1cc(OC)c(C(=O)CCCN2CCCC2)c(OC)c1 [Buflomedil HCl],0.851,0.685
N#CC(c1ccc(Cl)cc1)c1c(Cl)cc(-n2ncc(=O)[nH]c2=O)cc1Cl (stereo unspecified) [Diclazuril],1.12,0.998
CCOc1ccc(Cc2cc([C@@H]3O[C@H](SC)[C@@H](O)[C@H](O)[C@H]3O)ccc2Cl)cc1 [Sotagliflozin (LX4211)],0.747,0.755
CC(C)(C)C(=O)OCOP(=O)(COCCn1cnc2c(N)ncnc21)OCOC(=O)C(C)(C)C [Adefovir Dipivoxil],0.824,0.652
COc1ccc(CCNCc2ccc(OCc3ccc(Cl)nc3)c(OC)c2)cc1OC,1.04,0.914
CS(=O)(=O)CCNCc1ccc(-c2ccc3ncnc(Nc4ccc(OCc5cccc(F)c5)c(Cl)c4)c3c2)o1,1.05,0.369
C=CC(=O)Nc1cccc(Nc2nc(Nc3ccc(N4CCN(C(C)=O)CC4)cc3OC)ncc2C(F)(F)F)c1,0.781,0.431
Nc1c(Br)cc(Br)cc1CN[C@H]1CC[C@H](O)CC1 [Ambroxol HCl],1.05,0.837
Cn1ccnc1S [Methimazole],0.98,1.07
CC(C)(Sc1cc(C(C)(C)C)c(O)c(C(C)(C)C)c1)Sc1cc(C(C)(C)C)c(O)c(C(C)(C)C)c1 [Probucol],0.974,1.01
CCCCCCCc1ccc(CCc2cccc(O)c2C(=O)O)cc1,0.96,0.73
Cc1noc(C)c1-c1ccc(-c2cc(C(N)=O)c(NC(N)=O)s2)c(O[C@H]2CCNC2)c1,0.847,0.778
Cc1ccc([N+](=O)[O-])cc1S(=O)(=O)N(C)/N=C/c1cnc2ccc(Br)cn12,0.428,0.422
COc1ccc(-c2ccc3c(N4CCOCC4)nc(N4C[C@@H](C)O[C@@H](C)C4)nc3n2)cc1CO,0.58,0.32
C/C(=C\c1ccc(C(=O)O)cc1)c1ccc2c(c1)C(C)(C)CCC2(C)C [TTNPB (Arotinoid Acid)],0.844,0.781
COc1cc(OC)c(/C=C/S(=O)(=O)Cc2ccc(OC)c(NCC(=O)O)c2)c(OC)c1,0.428,0.365
CN(C)[C@@H]1C(O)=C(C(N)=O)C(=O)[C@@]2(O)C(O)=C3C(=O)c4c(O)cccc4[C@@](C)(O)[C@H]3[C@H](O)[C@@H]12 [Oxytetracycline Dihydrate],1.14,1.14
CN(C)[C@@H]1C(O)=C(C(N)=O)C(=O)[C@@]2(O)C(O)=C3C(=O)c4c(O)cccc4[C@@](C)(O)[C@H]3[C@H](O)[C@@H]12 [Oxytetracycline (Terramycin)],1.06,1.06
